Experimental data reported in US9340533B2, “1,4-benzothiazepine-1-oxide derivative and pharmaceutical composition utilizing the same” (priority 2009, dated 2016).

Tested on: right atrium of the guinea pig
Assay: tissue or blood
Conditions: Cavia porcellus, read-out: 50% inhibition (IC50) of right atrium contraction rate per minute

Row | Compound | IC50 [µM]
1 | COc1ccc2c(c1)CN(C(=O)CCN1CCC(Cc3ccccc3)CC1)CC[S+]2[O-] (centres unmarked) [compound [III], 4-[3-(4-benzylpiperidin-1-yl)propionyl]-7-methoxy-2,3,4,5-tetrahydro-1,4-benzothiazepine-1-oxide] | 35
2 | COc1ccc2c(c1)CN(C(=O)CCN1CCC(Cc3ccc(O)cc3)CC1)CC[S+]2[O-] (centres unmarked) [compound [IV], 4-{3-[4-(4-hydroxybenzyl)piperadin-1-yl]propionyl}-7-methoxy-2,3,4,5-tetrahydro-1,4-benzothiazepine-1-oxide] | 110
